Measured values published in patent US20250297021A1 (SHANDONG SIMCERE BIOPHARMACEUTICAL CO NO 1, published 2025).

T1: human BCMA-His protein (human, UniProt Q02223 1-54)
T1 construct: Bought protein; also called human BCMA protein; BCMA antigen protein; not shown: His tag
T1 sequence (looked up): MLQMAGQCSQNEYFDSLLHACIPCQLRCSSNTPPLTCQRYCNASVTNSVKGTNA

B1: BCMA-mAb01 (scFv)
scFv: EVKLVESGGGLVQPGGSLKLSCAASGFTFSDFYMYWVRQTPEKRLEWVAYITNGGENTYFPDTVKGRFTISRDNAKNTLYLQMSRLKSEDTAMYYCARQNPFYYYDSNYDYAMDFWGQGTSVTVSSGGGGSGGGGSGGGGSDVVMTQTPLTLSVTIGQPASISCKSSQSLLYSNGKTYLSWLFQRPGQSPKRLIYLVSELDSGVPDRFTGSGSGTDFTLKISRVEAEDLGIYYCVQGTHFPHTFGGGTKLEIK[human IgG1 Fc with C220S (EU numbers) not spelt out]
notes: also called BCMA human-mouse chimeric antibody (scFv-Fc)
B2: BCMA-mAb02 (scFv)
scFv: EVQLVESGGDLVQPGESLKLSCESNAYEFPSYDMSWVRKTPEKRLELVAAINSDGGITYYPDTMERRFIISRDNTKKTLYLQMSSLRSEDTALYYCARHGYGGGAYVLDYWGQGTSVTVSSGGGGSGGGGSGGGGSDIVMTQSQKFMSTTVGDRVRITCKASQNVGTAVAWYQQKPGQSPKVLIYSASSRYTGVPDRFTGSGSGTDFTLTINNMQSEDLADYFCQQYSNYHLTFGTGTKLELK[human IgG1 Fc with C220S (EU numbers) not spelt out]
notes: as for B1
B3: BCMA-mAb03 (scFv)
scFv: QIPLVQSGPELKKPGETVKISCKASGYTFTNYAMTWVKQAPGKGLKWMGWIDTYSGVPTYADDFKGRFAFSLETSATTAYLQINNLKNEDTATYFCARVGVYGGYDTLDSWGQGTSVTVSSGGGGSGGGGSGGGGSDIQMTQTTSSLSASLGDRVTISCSASQGISNHLNWYQQKPDGTVKLLIYYTSSLHSGVPSRFSGSGSGTDYSLTISNLEPEDFATYYCQQYNNLPWTFGGGTKLEIK[human IgG1 Fc with C220S (EU numbers) not spelt out]
notes: as for B1
B4: BCMA-mAb04 (scFv)
scFv: QVQLQQSGAELARPGASVDLSCKASGYSFTSYGISWVKLRTGQGLEWIGEIYPRDDITYYNEKFKGKTTLTADKSSSTAYMELRSLTSEDSAVYFCARHDYYYVNSVSAMDYWGQGTSVTVSSGGGGSGGGGSGGGGSDIVMSQSPSSLAVSVGEKVTMSCKSSQSLLYSSNQKNYLAWYQQKPGQSPKLLIYWASTRYSGVPDRFTGSGSGTDFTLTVSSVRAEDLALYYCQQYYIYPWTFGGGTKLEIK[human IgG1 Fc with C220S (EU numbers) not spelt out]
notes: as for B1
B5: BCMA-mAb05 (scFv)
scFv: QGQMQQSDAELVKPGASVQISCKASGYMFTDHTFHWMRQRPEQGLEWIGYIYPRDDNTKYNEKFKGKATLTADKSSSTAYIHLNSLTSEDSAVYFCARAGYYGSSHAMDYWGQGTSVTVSSGGGGSGGGGSGGGGSDIVMTQSHKFMSTSVGDRVSITCKASQDVSTAVAWYQQKPGQSPRLLIYSASSRYTGVPDRFTGSGSGTDFTFTISSVQTEDLAVYYCQQLYSTPWTFGGGTKLEIK[human IgG1 Fc with C220S (EU numbers) not spelt out]
notes: as for B1
B6: BCMA-mAb06 (scFv)
scFv: EVKLLQSGGGLVQPGGSLKLSCAASGIDFSRYWMSWVRRAPGKGLEWIGEINPDSSTINYAPSLKDEFIISRDNAKNTLYLQMSKVRSEDTALYYCAIFYYANYYAMDYWGQGTSVTVSSGGGGSGGGGSGGGGSDIVMTQSQKFMSTSVGDRVSVTCKASQNVDTNVAWYQQKPGQSPKALIYSASYRFSGVPDRFTGSGSGTDFTLTISNVQSEDLAEYFCQQYNGYPFTFASGTKLEIK[human IgG1 Fc with C220S (EU numbers) not spelt out]
notes: as for B1
B7: BCMA-mAb07 (scFv)
scFv: QVQLQQSGAELAKPGASVKLSCKASGYTFTDYWTHWVKQRPGQGLEWIGYINHGSGYTKYNQKFKDKATLTADKSSSTAYMQVSSLTYEDSAVYYCARLTGSYYFDYWGQGTTLTVSSGGGGSGGGGSGGGGSQIVLTQSPAIMSASPGEKVTMTCSASSSVSYMHWYQQKSGTSPKRWIYDTSKLASGVPPRFSGSGSGTSYSLTISSMEAEDAATYYCQQWSSNPLTFGAGTKLELK[human IgG1 Fc with C220S (EU numbers) not spelt out]
notes: as for B1

Assays:
human BCMA-His protein [1] = target: T1, human BCMA-His protein; assay: SPR, antibody captured on Protein A chip, BCMA-His in solution, 1:1 Langmuir
Experimental: A sample buffer and a running buffer were HBS-EP+ (10 mM HEPES, 150 mM NaCl, 3 mM EDTA and 0.05% surfactant P20) (GE Healthcare; BR-1006-69). The flow-through cell was set to 25° C. The sample block was set to 16° C. Both were pretreated with the running buffer. In each cycle, an antibody to be tested was first captured with a Protein A chip, and then a single concentration of BCMA antigen protein was injected. The binding and dissociation processes of the antibody and the antigen protein were recorded, and finally Glycine pH 1.5 (GE Helthcare; BR-1003-54) was used to complete chip regeneration. Binding was measured by injecting different concentrations of BCMA-His in solution for 240 s with a flow rate of 30 μL/min. The concentration started from 200 nM (see the detailed results for the actual concentration in the test) and was diluted at 1:1, making a total of 5 concentrations. The dissociation phase was monitored for up to 600 s and was triggered by switching from sample solution to running buffer. The surface was regenerated by washing with a 10 mM glycine solution (pH 1.5) for 30 s at a flow rate of 30 μL/min. Bulk refractive index difference was corrected by subtracting the response obtained from the goat anti-human Fc surface. Blank injection was also subtracted (=double reference). For calculation of apparent KD and other kinetic parameters, Langmuir 1:1 model was used. The binding rate (Kₐ), dissociation rate (Kdis) and binding affinity (KD) of the chimeric antibodies to human BCMA protein are shown in the table, wherein REGN5459-hlgG1 and HPN217-hHcAb antibodies were used as controls.

human BCMA-His protein [2] = target: T1, human BCMA-His protein; assay: competition ELISA vs hAPRIL-biotin on coated human BCMA; antibody 11.11 nM
Experimental: (§1) The antigen protein was diluted with PBS to a final concentration of 1 μg/mL, and then added to a 96-well ELISA plate at 50 μl per well. The plate was sealed with a plastic film and incubated overnight at 4° C., the plate was washed twice with PBS the next day, and then a blocking solution [PBS+2% (w/v) BSA] was added for blocking at room temperature for 2 h. The blocking solution was discarded, the plate was washed 3 times with PBS, and 200 nM BCMA human-mouse chimeric antibody diluted gradiently or negative control antibody was added at 50 μl/well. hAPRIL-biotin (purchased from Acro, catalog number: APL-H82F5) was diluted to 0.5 μg/mL, with 50 μl per well. After incubation at 37° C. for 1.5 h, the plate was washed 3 times with PBS. HRP (horseradish peroxidase)-labeled secondary antibody (purchased from Sigma, catalog number: S2438-250 ug) was added, and incubated at 37° C. for 1 h, and the plate was washed 5 times with PBS. TMB substrate was added at 50 μl/well, and incubated at room temperature for 10 min, then a stop solution (1.0 M HCl) was added at 50 μl/well. The OD450 nm values were read by an ELISA microplate reader (Multimode Plate Reader, EnSight, purchased from Perkin Elmer).

human BCMA-His protein [3] = target: T1, human BCMA-His protein; assay: competition ELISA vs hAPRIL-biotin on coated human BCMA; antibody 33.33 nM
Experimental: as §1

human BCMA-His protein [4] = target: T1, human BCMA-His protein; assay: competition ELISA vs hAPRIL-biotin on coated human BCMA; antibody 3.70 nM
Experimental: as §1

human BCMA-His protein [5] = target: T1, human BCMA-His protein; assay: competition ELISA vs hAPRIL-biotin on coated human BCMA; antibody 1.23 nM
Experimental: as §1

human BCMA-His protein [6] = target: T1, human BCMA-His protein; assay: competition ELISA vs hAPRIL-biotin on coated human BCMA; antibody 100.00 nM
Experimental: as §1

human BCMA-His protein [7] = target: T1, human BCMA-His protein; assay: competition ELISA vs hAPRIL-biotin on coated human BCMA; antibody 0.14 nM
Experimental: as §1

human BCMA-His protein [8] = target: T1, human BCMA-His protein; assay: competition ELISA vs hAPRIL-biotin on coated human BCMA; antibody 0.41 nM
Experimental: as §1

Row | Binder | Kd (human BCMA-His protein [1]) | koff (human BCMA-His protein [1]) | kon (human BCMA-His protein [1]) | OD450 (human BCMA-His protein [2]) | OD450 (human BCMA-His protein [3]) | OD450 (human BCMA-His protein [4]) | OD450 (human BCMA-His protein [5]) | OD450 (human BCMA-His protein [6]) | OD450 (human BCMA-His protein [7]) | OD450 (human BCMA-His protein [8])
1 | B1 | 0.487 nM | 0.00082 s⁻¹ | 1.68e+06 M⁻¹ s⁻¹ | 0.41 OD450 | 0.18 OD450 | 1.1 OD450 | 1.39 OD450 | 0.14 OD450 | 1.46 OD450 | 1.46 OD450
2 | B2 | 0.196 nM | 0.000253 s⁻¹ | 1.29e+06 M⁻¹ s⁻¹ | 0.57 OD450 | 0.18 OD450 | 1.27 OD450 | 1.36 OD450 | 0.12 OD450 | 1.47 OD450 | 1.44 OD450
3 | B3 | 0.126 nM | 0.000146 s⁻¹ | 1.16e+06 M⁻¹ s⁻¹ | 0.44 OD450 | 0.09 OD450 | 1.03 OD450 | 1.15 OD450 | 0.08 OD450 | 1.27 OD450 | 1.24 OD450
4 | B4 | 0.0935 nM | 0.000106 s⁻¹ | 1.13e+06 M⁻¹ s⁻¹ | 0.31 OD450 | 0.09 OD450 | 0.85 OD450 | 1.07 OD450 | 0.07 OD450 | 1.13 OD450 | 1.11 OD450
5 | B5 | 0.0258 nM | 2.96e-05 s⁻¹ | 1.15e+06 M⁻¹ s⁻¹ | 0.22 OD450 | 0.07 OD450 | 1 OD450 | 1.22 OD450 | 0.06 OD450 | 1.26 OD450 | 1.26 OD450
6 | B6 | 0.398 nM | 0.000353 s⁻¹ | 885000 M⁻¹ s⁻¹ | 0.12 OD450 | 0.07 OD450 | 0.86 OD450 | 1.16 OD450 | 0.07 OD450 | 1.29 OD450 | 1.29 OD450
7 | B7 | 0.792 nM | 0.00106 s⁻¹ | 1.34e+06 M⁻¹ s⁻¹ | 0.31 OD450 | 0.09 OD450 | 1.06 OD450 | 1.34 OD450 | 0.08 OD450 | 1.41 OD450 | 1.43 OD450
